Assay results taken from PubChem BioAssay AID488969 (Vanderbilt High Throughput Screening Facility, 2010).
In all, about 110,000 compounds were measured (“z-score”: median about -0.1, highest 2% from about 2 on). This is one part of the list. Calls of active or inactive are those of the source.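 Rule for the calls: active = z-score in the third read window above 3 or below -3; inactive = the rest.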

molecular target: Metabotropic glutamate receptor 8 (Rattus norvegicus) (UniProt P70579); experiment: rat mGluR8 modulators via GIRK flux, primary screen, cell-based, thallium flux, HTS (AID 488969); settings: HEK293 rat mGluR8, GIRK (G protein-gated inwardly rectifying potassium channel) thallium flux, FluoZin2; at 10 µM; stronger effect = higher value; submaximal glutamate (EC20) added with thallium
Chain of UniProt P70579 (P70579 whole entry, looked up): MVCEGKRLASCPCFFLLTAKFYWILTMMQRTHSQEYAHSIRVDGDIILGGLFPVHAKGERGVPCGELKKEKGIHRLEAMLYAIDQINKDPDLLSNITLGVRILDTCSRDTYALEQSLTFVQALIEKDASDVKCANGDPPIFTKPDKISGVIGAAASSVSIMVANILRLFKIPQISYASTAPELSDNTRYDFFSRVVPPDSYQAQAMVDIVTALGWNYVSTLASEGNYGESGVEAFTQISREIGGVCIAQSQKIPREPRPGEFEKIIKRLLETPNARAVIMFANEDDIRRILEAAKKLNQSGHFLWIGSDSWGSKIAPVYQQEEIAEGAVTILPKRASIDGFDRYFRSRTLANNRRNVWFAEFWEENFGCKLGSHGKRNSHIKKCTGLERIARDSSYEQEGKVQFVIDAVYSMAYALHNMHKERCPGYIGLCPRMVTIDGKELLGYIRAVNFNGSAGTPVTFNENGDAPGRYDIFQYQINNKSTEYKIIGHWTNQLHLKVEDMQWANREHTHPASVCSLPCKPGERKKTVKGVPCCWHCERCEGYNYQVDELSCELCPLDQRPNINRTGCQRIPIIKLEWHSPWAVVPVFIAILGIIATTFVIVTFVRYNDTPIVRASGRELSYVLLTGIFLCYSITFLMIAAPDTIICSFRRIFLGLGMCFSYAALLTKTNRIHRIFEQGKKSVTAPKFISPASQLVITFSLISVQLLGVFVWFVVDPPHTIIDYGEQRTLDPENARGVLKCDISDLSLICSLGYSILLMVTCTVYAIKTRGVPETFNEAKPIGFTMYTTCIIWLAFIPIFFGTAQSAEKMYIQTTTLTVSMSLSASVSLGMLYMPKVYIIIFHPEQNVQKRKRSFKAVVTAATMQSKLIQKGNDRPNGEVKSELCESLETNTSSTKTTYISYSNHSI

SMILES	z-score
CCOC(=O)C(NC(C)=O)(Nc1ccc(S(=O)(=O)Nc2ccncn2)cc1)C(F)(F)F (stereo unspecified)	-0.157
CCOC(=O)C(C(=O)OCC)N(C#N)c1nc(C)cc(C)n1	-0.0634
CCCCNC(=S)NNC(=O)c1ccco1	-0.0425
CCn1c(COc2ccccc2C)nnc1SCC(=O)NC1CCCC1	-0.187
O=S(=O)(Nc1ccc(S(=O)(=O)N2CCCCCC2)cc1)c1cccs1	1.03
O=Cc1cccn1Cc1ccccc1[N+](=O)[O-]	0.113
CCC(=O)Nc1nc(C)c(-c2csc(Nc3ccc(S(=O)(=O)Nc4cc(C)on4)cc3)n2)s1	-0.662
Cc1cccc(C)c1NC(=O)c1sccc1SCc1cccc(C(F)(F)F)c1	0.244
OCCNCc1ccc(OC2CCCC2)cc1	0.000809
COc1cc(C2C(C(C)=O)=C(C)Nc3ncnn32)ccc1O (stereo unspecified)	0.195
CC(=O)c1cccc(NC(=O)C2CCCN2S(=O)(=O)c2cccc3cccnc23)c1 (stereo unspecified)	active: 4.14
Cc1nnc(SCc2nc(N)nc(Nc3ccccc3)n2)s1	-0.209
COCCn1cc(C(=S)N2CCOCC2)c2ccccc21	0.108
COc1ccccc1C(OC(=O)c1ccco1)C(=O)NC(C)(C)C (stereo unspecified)	-0.346
CC1=CC(=O)C=C(C)C1=NOC(=O)c1cccc([N+](=O)[O-])c1	-0.159
O=C(NCCc1c[nH]c2ccc(Cl)cc12)c1cccnc1	-0.113
Cc1nn(-c2ccccn2)c2c1-c1nc(N3CCOCC3)ncc1CC2	0.276
Cn1c(=O)c2c(nc(N3CCc4ccccc4C3)n2Cc2ccc(Br)cc2)n(C)c1=O	0.168
Brc1ccc(/C=C/C=N/Nc2nc3ccccc3s2)cc1	-2.76
COc1cccc(Nc2ncccc2C(=O)Nc2ccccc2)c1	0.231
Cc1ccc(Cn2ncc3c(N4CCOCC4)ncnc32)cc1	0.941
Cc1ccc(C(=O)N/C(=C/c2ccco2)C(=O)NCCc2c[nH]c3ccccc23)cc1C	-0.366
CN1CCN(c2ccc(NC(=O)COc3ccccc3Cl)cc2)CC1	0.89
CCOC(=O)c1ccc(NC(=O)CSc2nnc(COc3ccccc3OC)n2C)cc1	0.225

SMILES	z-score
O=C1NC(=O)c2c(NC(=O)C3CCCO3)cccc21 (stereo unspecified)	0.0676
CNS(=O)(=O)c1cccc(C(=O)OCC(=O)Nc2sc3c(c2C#N)CCCCC3)c1	-0.236
CC1CCCCN1c1nnc(NC(=O)Cn2c(=O)oc3ccccc32)s1 (stereo unspecified)	-0.326
CC(C)Oc1nc(-c2ccccc2O)nc2ccccc12	-0.0666
CCOC(=O)N1CCN(C(=O)CCN2C(=O)COc3ccccc32)CC1	-0.301
COc1ccc(CCNC(=O)COC(=O)/C=C/c2ccc(OCC#N)c(OC)c2)cc1OC	-0.482
CCOC(=O)c1sc2nc(SC)nc(-c3ccccc3)c2c1N	-0.0533
Cc1ccc(-c2nnc(SCC#N)n2N)cc1	0.0429
CC(C)n1c(-c2cccs2)nc2ccccc21	-0.753
CN(CC(=O)O/N=C(\N)c1ccccn1)S(=O)(=O)c1ccc(Br)cc1	-0.661
O=C(OCc1cn(-c2ccc(Cl)cc2)nn1)c1ccccc1	0.00665
Cc1nn(-c2ccccc2)c(C)c1/C=N/O	-0.0883
Cn1c(SCCOc2ccc(Cl)cc2)nnc1-c1ccncc1	-0.889
CC(C)OCCCNS(=O)(=O)c1ccc2c(c1)OCCO2	0.944
O=C(CN1CCN(S(=O)(=O)c2ccc(Br)cc2)CC1)N/N=C/c1ccc(Cl)c([N+](=O)[O-])c1	-0.167
CC(/C=N/NC(=O)c1n[nH]c2c1CCC2)=C\c1ccccc1	-0.181
COC(=O)CCC(=O)Nc1cccc(Cl)c1	-0.0969
CCOC(=O)c1nc2cc3n(c(C)c-2c1C)C(C)C(CC)=C3C (stereo unspecified)	2.31
CCCCOc1ccc(C(=O)C(CN2CCOCC2)c2ccccc2)cc1 (stereo unspecified)	-0.0119
CCOC(=O)CC1C(=O)NCCN1C(=O)NC1CCCCC1 (stereo unspecified)	-0.168
CC(C)(C)C1CCC(=NNC(=O)c2ccccc2-n2cccc2)CC1 (stereo unspecified)	-0.0903
COc1cccc2c1OCC/C2=N\NC(=O)COc1ccccc1C	-0.235
Cc1cc(C)n2nc(C(=O)N3CCOCC3)nc2n1	1.43
CN(C)c1nc(N)nc(Cn2ccnc2)n1	0.206

SMILES	z-score
COCCN(C(=O)Cc1cccs1)c1nnc(-c2ccncc2)s1	-0.0562
Cc1ccc(-n2nc(C(=O)N/N=C/c3cccc(C(F)(F)F)c3)c3ccccc3c2=O)cc1C	0.099
COc1ccc(OC)c(S(=O)(=O)N2CCC(C(=O)NCCc3ccc(OC)c(OC)c3)CC2)c1	-0.718
O=C(C1CCC(CNS(=O)(=O)c2cccc3cccnc23)CC1)N1CCCC1 (stereo unspecified)	-0.035
O=C(Nc1sc2c(c1C(=O)NCc1ccco1)CCCC2)c1ccc2c(c1)OCO2	-0.422
CCc1cc(C(=O)OC)c(NC(=O)CC2Nc3cc(C)c(C)cc3NC2=O)s1 (stereo unspecified)	-0.628
Cc1cn2c(nc1=O)OC1C(O)C(COC(=O)c3ccccc3)OC12 (stereo unspecified)	0.0313
CC1=CC(C)(C)N(C)C(=O)N1c1ccc(Cl)cc1	-0.475
O=C(CSc1nnnn1-c1cccc2c1CCCC2)NC1CCCC1	active: 5.15
CCOc1ccc(N2C(=O)C(Cl)=C(Nc3ccccc3O)C2=O)cc1	-0.473
Cc1ccc(C(=O)c2c(NC(=O)c3cccnc3)sc3c2CCCC3)cc1	-0.259
CCCCOC(=O)N/N=C/C=C/c1ccccc1	-0.446
CC(=O)c1cc(-c2nc3ccccc3n2C)n(C)c1	-0.0365
C=C1CC2C3CC[C@@]4(OCOC45COCO5)[C@@]3(C)C(O)CC2[C@@]2(C)CCC(=O)C=C12 (stereo partly specified)	0.105
Cc1ccc2[nH]c(O)c(N=NC(=O)CCc3ccccc3)c2c1Br	-0.296
Cc1ccc(S(=O)(=O)N2CCN(C(=O)CSc3nnnn3C)C2)cc1	-0.0731
COC(=O)c1cc2ccsc2n1CC(=O)Nc1cc(C)cc(C)c1	0.652
COc1ccccc1Oc1c(C)oc2cc(OC(=O)c3ccco3)ccc2c1=O	-0.622
COc1ccc2c(c1)C=C(C(=O)NCc1ccc(Cl)cc1)CO2	-0.401
CCOC(=O)c1c(CN2CCN(Cc3ccccc3)CC2)n(C)c2cc(Br)c(OC)cc12	0.132
CC1CCc2c(sc(NC(=O)CSc3nc4c(c(C(F)(F)F)n3)CCc3ccccc3-4)c2C(N)=O)C1 (stereo unspecified)	-0.229
COc1ccc(OC)c(NC(=O)CSc2ncccn2)c1	-0.134
Cc1ccc(OCC(=O)Nc2ccc3c(c2)OCO3)c([N+](=O)[O-])n1	0.0431
